# From PubChem BioAssay AID686978 (National Center for Advancing Translational Sciences (NCATS), 2013)
# About 64,000 (15%) of roughly 420,000 compounds were called active. The shares of active, inactive and inconclusive entries below differ from those in the screen. The call rests on the fitted dose curve; in most records, active means well fitted inhibition curve with a large enough effect; inconclusive means small, poorly fitted or top-dose-only effect; inactive means flat fitted curve, though single readings scatter. No potency is given beside an inconclusive call; the fits are too rough.
# Assay: qHTS for Inhibitors of human tyrosyl-DNA phosphodiesterase 1 (TDP1): qHTS in cells in absence of CPT; further: nearly all actives have a fitted effect of over 55% in size
# Details: DT40 Tdp1-/- hTDP1 cells, no CPT, ATP luminescence, 48 h; series mostly up to 46.2 µM
# Procedure, shortened: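 Chicken DT40 Tdp1-/- cells complemented with human TDP1, screened without camptothecin (DMSO vehicle only), 400 cells/well. Compounds pin-transferred, cells incubated at 37 °C for at least 48 hr. Growth read as ATP-dependent luminescence (CellTiter-Glo, 30 min at RT).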
# Potency means the concentration at half of the fitted maximal effect; tags describe the fitted curve by direction and shape.
row,SMILES,Potency
1,COc1ccc(CCn2cc3c(c2-c2ccc(Br)cc2)c(=O)n(C)c(=O)n3C)cc1OC,"inconclusive [inhibitor, single point]"
2,O=S(=O)(c1ccc(NC(=S)NCc2ccncc2)cc1)N1CCCCC1,"inconclusive [inhibitor, partial curve]"
3,Cc1cccc(NC(=O)CN(CC2CCCO2)C(=O)c2ccc(S(C)(=O)=O)cc2)c1C (stereo not given),inactive
4,CC(C)/C(C=O)=C(/NC1CCCCC1)c1ccccc1,"inconclusive [inhibitor, partial curve]"
5,Cc1ccc(C)c(N2CCN(C(=O)C3CCCN(S(=O)(=O)c4ccc5c(c4)oc(=O)n5C)C3)CC2)c1 (stereo not given),active: 11.6 µM
6,CCn1c(SCC(=O)Nc2ccc(NC(C)=O)cc2)nc2c1c(=O)n(C)c(=O)n2C,"inconclusive [inhibitor, partial curve, poor fit]"
7,Cc1cccnc1NC(=O)c1ccc(NS(=O)(=O)c2ccc3[nH]c(=O)[nH]c3c2)cc1,inactive
8,COc1ccc2[nH]c3c(c2c1)CCN1C(=O)N([C@@H](C)C(=O)NCc2ccc(C)cc2)C(=O)[C@]31C,"inconclusive [inhibitor, single point]"
9,COc1ccc(S(=O)(=O)Nc2ccc3c(c2)N(C(C)=O)CCC3)cc1F,active: 18.4 µM
10,CN(C)c1ccc(C(CNS(=O)(=O)c2ccc3ccccc3c2)N2CCOCC2)cc1 (stereo not given),inactive
11,CCN(C[C@H]1N[C@@](CC)(C(=O)OC)[C@H]2C(=O)N(C)C(=O)[C@@H]12)S(=O)(=O)c1ccc(C(C)(C)C)cc1,"inconclusive [inhibitor, single point]"
12,O=C(CC[C@H]1O[C@@H](n2ccc(=O)[nH]c2=O)[C@H](O)[C@@H]1O)NCCc1c[nH]c2ccccc12,inactive
13,Cc1ccc(-c2nnc(SCc3ccccc3C)o2)cc1,inactive
14,Cc1ccc2c(=O)n3c(nc2c1)C(CC(C)C)NC(=O)c1cccnc1-3 (stereo not given),"inconclusive [inhibitor, partial curve]"
15,O=C(COc1ccc(Cl)cc1)Nc1ccc(-c2nc3ccccc3s2)c(O)c1,active: 18.4 µM
16,O=C(Nc1ccccc1Cc1ccccc1)c1oc2ccccc2c1COc1ccccc1,"inconclusive [inhibitor, single point]"
17,Cc1ccccc1NCC(=O)N=Nc1c(O)[nH]c2ccc([N+](=O)[O-])cc12,"inconclusive [inhibitor, single point]"
18,CCCC(=O)C1C(=O)CC(CC(C)SCC)CC1=O (stereo not given),"inconclusive [inhibitor, single point]"
19,Cc1cc(Br)cc(C)c1NC(=S)NC(=O)CC(C)C,"inconclusive [inhibitor, single point]"
20,C[C@@H]1CN([C@@H](C)CO)C(=O)c2cc(Br)cnc2O[C@H]1CN(C)C(=O)c1ccncc1,inactive
21,CCOC(=O)c1sc(=NC(=O)c2ccc(S(=O)(=O)N(C)c3ccccc3)cc2)n(C)c1C,inactive
22,COc1ccc(C(=O)CSc2nnc(CC(=O)Nc3ccccc3OC)n2C)cc1,"inconclusive [inhibitor, single point]"
23,COc1ccc(NS(=O)(=O)c2cccc(C(=O)N3CCCC(C)C3)c2)cc1 (stereo not given),"inconclusive [inhibitor, single point]"

row,SMILES,Potency
1,CCCCCCn1c(C(C)NC(=O)c2ccco2)nc2ccccc21 (stereo not given),"inconclusive [inhibitor, single point]"
2,CC1CN(c2ccc(Oc3ccccc3)cc2)c2nc3c(c(=O)n(CC(N)=O)c(=O)n3C)n2C1 (stereo not given),"inconclusive [inhibitor, single point]"
3,COc1ccc2c(c1)Cc1sc(NC(=O)c3cccs3)nc1-2,active: 20.6 µM
4,CC(=O)Nc1ccc(NC(=O)C2CC(=O)N(Cc3ccco3)C2)cc1 (stereo not given),inactive
5,CCCCOC(=O)c1ccc(NC(=O)COC(=O)CN2C(=O)NC3(CCCC3)C2=O)cc1,inactive
6,Cc1ccccc1CN(c1ccc(C(=O)N/N=C/c2ccc(OCC(N)=O)cc2)cc1)S(C)(=O)=O,inactive
7,Clc1ccc(Sc2cc(Cl)c(-c3ccccc3)nn2)cc1,"inconclusive [inhibitor, partial curve]"
8,Nn1c(SCC(=O)Nc2ccccc2C(F)(F)F)nncc1=O,inactive
9,Cc1ccc2nc(N3CCN(c4cccc(Cl)c4)CC3)c(-n3nc(C)cc3C)nc2c1,"inconclusive [inhibitor, single point]"
10,Cc1cccc(Oc2nc3c(C)cccn3c(=O)c2/C=C(\C#N)c2nc3ccccc3[nH]2)c1,inactive
11,CC1CN(c2nc(N(C)c3ccccc3)nc(N)c2[N+](=O)[O-])CC(C)O1 (stereo not given),"inconclusive [inhibitor, partial curve]"
12,CSc1cccc(NC(=S)N2CCC(N(C)C3CCCCC3C)CC2)c1 (stereo not given),"inconclusive [inhibitor, single point]"
13,Cc1c(C(c2ccc(F)cc2)c2c(C)n(C)n(-c3ccccc3)c2=O)c(=O)n(-c2ccccc2)n1C,inactive
14,O=C(CSc1ccc(-c2ccccc2)nn1)c1cccs1,"inconclusive [inhibitor, single point]"
15,CC1CN(CCOc2ccc(Cl)c(Cl)c2)CC(C)O1 (stereo not given),"inconclusive [inhibitor, single point]"
16,CCOC(=O)CNC(=O)COc1coc(CN2CCN(c3ccccc3F)CC2)cc1=O,inactive
17,N#Cc1ccc(-c2c(-c3ccccc3)ncc3cc(F)ccc23)cc1,active: 16.4 µM
18,COc1ccccc1CNC(=O)CN(C)CC(=O)Nc1cccc(F)c1,"inconclusive [inhibitor, single point]"
19,O=c1cnnc(N/N=C/c2ccccn2)[nH]1,active: 3.26 µM
20,CSc1ccc(S(=O)(=O)N2CCC(C(=O)NCC3CCCO3)CC2)cc1 (stereo not given),inactive
21,Cc1ccc2cc(NC(=O)c3ccc(C(C)(C)C)cc3)ccc2n1,"inconclusive [inhibitor, single point]"
22,O=C(CSc1nc(-c2ccccc2Cl)ns1)Nc1ccc2c(c1)OCO2,"inconclusive [inhibitor, single point]"
